The other results are listed elsewhere or left out. The full chains were built here from the parent and the listed change. Inactive controls read about 0.05.
B1: TEV protease; numbered along this chain (parent)
chain: MGESLFKGPRDYNPISSSICHLTNESDGHTTSLYGIGFGPFIITNKHLFRRNNGTLVVQSLHGVFKVKDTTTLQQHLVDGRDMIIIRMPKDFPPFPQKLKFREPQREERICLVTTNFQTKSMSSMVSDTSCTFPSGDGIFWKHWIQTKDGQCGSPLVSTRDGFIVGIHSASNFTNTNNYFTSVPKNFMELLTNQEAQQWVSGWRLNADSVLWGGHKVFMVKPEEPFQPVKEATQL

Variants of: B1
Assay: raw area under fraction-flipped curve 0-4 h after induction (AUC4h, not background-subtracted), DNA-recorder readout of cleavage of the substrate (dimensionless); higher = more cleavage of the substrate by the protease variant
Settings: temperature: 34 °C; time window: 0-4 h after rhamnose induction
Procedure: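 In vivo DNA recorder in E. coli TOP10(DE3) ΔrhaA at 34 °C. Each TEVp single-site mutant (parent TEVp 0) is paired with a single-site variant of the 7-mer TEVs (canonical ENLYFQ|S). The substrate sits between flexible linkers in a Bxb1-sfGFP-TEVs-SsrA fusion, so cleavage stabilises Bxb1 and speeds flipping of a recombination array, read by NGS. The value is the raw area under the fraction-flipped curve over 0-4 h after rhamnose induction (AUC4h), with ≥20 reads per time point. It is not background-subtracted; inactive controls average about 0.047.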
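Further: Bxb1 expression induced with 0.2% (w/v) L-rhamnose at OD600 near 0.5, cultures sampled hourly, flipped fraction per protease–substrate barcode pair counted by paired-end Illumina sequencing.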

Variant	area with substrate ENLAFQS	area with substrate ENLDFQS	area with substrate ENLFFQS	area with substrate ENLHFQS	area with substrate ENLIFQS	area with substrate ENLNFQS	area with substrate ENLPFQS	area with substrate ENLQFQS	area with substrate ENLSFQS	area with substrate ENLKFQS	area with substrate ENLLFQS	area with substrate ENLVFQS	area with substrate ENLCFQS	area with substrate ENLRFQS	area with substrate ENLWFQS	area with substrate ENLEFQS	area with substrate ENLGFQS	area with substrate ENLTFQS	area with substrate ENLMFQS
MGESLFKGPRDYNPISSSICHLTNESDGHTTSLYGIGFGPFIITNKHLFRRNNGTLVVQSLHGVFKVKDTTTLQQHLVDGRDMIIIRMPKDFPPFPQKLKFREPQREERICLVTTNFQTKSMSSMVSDTSCTFPSGDGIFWKHWIQTKDGQCGSPLVSTRDGFIVGIHSASNFTNTNNYFTSVPKNFMELLTNQEAQQWVSGWRLNADSVLWGGHKVCMVKPEEPFQPVKEATQL [F218C]	0.0635	0.0539	0.0874	0.0581	0.0584	0.0628	0.081	0.0484	0.0744										
MGESLFKGPRDYNPISSSICHLTNESDGHTTSLYGIGFGPFIITNKHLFRRNNGTLVVQSLHGVFKVKDTTTLQQHLVDGRDMIIIRMPKDFPPFPQKLKFREPQREERICLVTTNFQTKSMSSMVSDTSCTFPSGDGIFWKHWIQTKDGQCGSPLVSTRDGFIVGIHSASNFTNTNNYFTSVPKNFMELLTNQEAQQWVSGWRLNADSILWGGHKVFMVKPEEPFQPVKEATQL [V210I]	0.0855		0.0651							0.079	0.0501	0.101							
MGESLFKGPRDYNPISSSICHLTNESDGHTTSLYGIGFGPFIITNKHLFRRNNGTLVVQSLHGVFKVKDTTTLQQHLVDGRDMIIIRMPKDFPPFPQKLKFREPQREERICLVTTNFQTKSMSSMVSDTSCTFPSGDGIFWKHWIQTKDGQCGSPLVSTRDGFIVGIHSASNFTNTNNYFTSVPKNFMELLTNQEAQQWVSGWRLNADSWLWGGHKVFMVKPEEPFQPVKEATQL [V210W]	0.06	0.0598	0.0588	0.0591	0.0617	0.06					0.0656	0.0545	0.0709	0.0653	0.0521				
MGESLFKGPRDYNPISSSICHLTNESDGHTTSLYGIGFGPFIITNKHLFRRNNGTLVVQSLHGVFKVKDTTTLQQHLVDGRDMIIIRMPKDFPPFPQKLKFREPQREERICLVTTNFQTKSMSSMVSDTSCTFPSGDGIFWKHWIQTKDGQCGSPLVSTRDGFIVGIHSASNFTNTNNYFTSVPKNFMELLTNQEAQQWVSGWRLNADSVLIGGHKVFMVKPEEPFQPVKEATQL [W212I]	0.075	0.0608	0.11			0.0554	0.0653	0.0914	0.0614	0.087			0.0639	0.098	0.109	0.0575	0.0811		
MGESLFKGPRDYNPISSSICHLTNESDGHTTSLYGIGFGPFIITNKHLFRRNNGTLVVQSLHGVFKVKDTTTLQQHLVDGRDMIIIRMPKDFPPFPQKLKFREPQREERICLVTTNFQTKSMSSMVSDTSCTFPSGDGIFWKHWIQTKDGQCGSPLVSTRDGFIVGIHSASNFTNTNNYFTSVPKNFMELLTNQEAQQWVSGWRLNADSVLTGGHKVFMVKPEEPFQPVKEATQL [W212T]	0.0575	0.0624	0.066	0.0657	0.0517	0.0481		0.06	0.0599	0.0707	0.0535		0.07	0.0764	0.0648	0.057		0.0619	
MGESLFKGPRDYNPISSSICHLTNESDGHTTSLYGIGFGPFIITNKHLFRRNNGTLVVQSLHGVFKVKDTTTLQQHLVDGRDMIIIRMPKDFPPFPQKLKFREPQREERICLVTTNFQTKSMSSMVSDTSCTFPSGDGIFWKHWIQTKDGQCGSPLVSTRDGFIVGIHSASNFTNTNNYFTSVPKNFMELLTNQEAQQWVSGWRLNADSVLYGGHKVFMVKPEEPFQPVKEATQL [W212Y]	0.0546	0.0621	0.0896	0.081	0.104	0.078	0.0498		0.0563	0.0863								0.0828	
MGESLFKGPRDYNPISSSICHLTNESDGHTTSLYGIGFGPFIITNKHLFRRNNGTLVVQSLHGVFKVKDTTTLQQHLVDGRDMIIIRMPKDFPPFPQKLKFREPQREERICLVTTNFQTKSMSSMVSDTSCTFPSGDGIFWKHWIQTKDGQCGSPLVSTRDGFIVGIHSASNFTNTNNYFTSVPKNFMELLTNQEAQQWVSGWRPNADSVLWGGHKVFMVKPEEPFQPVKEATQL [L205P]	0.0544	0.0076	0.0533		0.0411	0.0555			0.0436	0.056						0.0785			
MGESLFKGPRDYNPISSSICHLTNESDGHTTSLYGIGFGPFIITNKHLFRRNNGTLVVQSLHGVFKVKDTTTLQQHLVDGRDMIIIRMPKDFPPFPQKLKFREPQREERICLVTTNFQTKSMSSMVSDTSCTFPSGDGIFWKHWIQTKDGQCGSPLVSTRDGFIVGIHSASNFTNTNNYFTSVPKNFMELLTNQEAQQWVSGWRLDADSVLWGGHKVFMVKPEEPFQPVKEATQL [N206D]	0.06	0.0641	0.0926	0.0699		0.0655	0.0843	0.0684	0.0759	0.0902	0.0786	0.0988	0.0708	0.0798		0.0571		0.0445	0.0797
MGESLFKGPRDYNPISSSICHLTNESDGHTTSLYGIGFGPFIITNKHLFRRNNGTLVVQSLHGVFKVKDTTTLQQHLVDGRDMIIIRMPKDFPPFPQKLKFREPQREERICLVTTNFQTKSMSSMVSDTSCTFPSGDGIFWKHWIQTKDGQCGSPLVSTRDGFIVGIHSASNFTNTNNYFTSVPKNFMELLTNQEAQQWVSGWRLQADSVLWGGHKVFMVKPEEPFQPVKEATQL [N206Q]	0.063	0.0708	0.0732	0.0664	0.0751	0.0247					0.0546	0.0758	0.0733			0.0709			
MGESLFKGPRDYNPISSSICHLTNESDGHTTSLYGIGFGPFIITNKHLFRRNNGTLVVQSLHGVFKVKDTTTLQQHLVDGRDMIIIRMPKDFPPFPQKLKFREPQREERICLVTTNFQTKSMSSMVSDTSCTFPSGDGIFWKHWIQTKDGQCGSPLVSTRDGFIVGIHSASNFTNTNNYFTSVPKNFMELLTNQEAQQWVSGWRLNADSVLWGGHKVFMFKPEEPFQPVKEATQL [V220F]	0.0669	0.0541	0.0823	0.0625	0.0855	0.067	0.0573	0.0698			0.0704	0.0769	0.0738	0.076		0.0623	0.0612		

From the supplement of paper PMC12217912
